# According to PubChem BioAssay AID1745853 (National Center for Advancing Translational Sciences (NCATS), 2022):
# Where “and” joins values, the source holds several entries; their conditions need not be identical. Identical values can stand only once. The list shows a part of the results. Further columns of the screen follow, without active or inactive calls.
# Tests used:
# Experiment in all cases: Primary Screen for Target Class Profiling of Small Molecule Inhibitors of Methyltransferases
# [1] = target: Glycine N-methyltransferase (Homo sapiens) (UniProt Q14749); details: purified enzyme, MTase-Glo SAH luminescence; measured here: GNMT inhibition; at 40 µM; stronger effect = lower value
# How it was run: (§1)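 Each enzyme was assayed with SAM and its substrate. SAH formation detected by MTase-Glo luminescence; single-point 40 uM screen[…].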
# [2] = target: Guanidinoacetate N-methyltransferase (Homo sapiens) (UniProt Q14353); details: purified enzyme, MTase-Glo SAH luminescence; measured here: GAMT inhibition; at 40 µM; stronger effect = lower value
# How it was run: as §1
# [3] = target: Histamine N-methyltransferase (Homo sapiens) (UniProt P50135); details: purified enzyme, MTase-Glo SAH luminescence; measured here: HNMT inhibition; at 40 µM; stronger effect = lower value
# How it was run: as §1
# [4] = target: Nicotinamide N-methyltransferase (Homo sapiens) (UniProt P40261); details: purified enzyme, MTase-Glo SAH luminescence; measured here: NNMT inhibition; at 40 µM; stronger effect = lower value
# How it was run: as §1
# [5] = target: Phenylethanolamine N-methyltransferase (Homo sapiens) (UniProt P11086); details: purified enzyme, MTase-Glo SAH luminescence; measured here: PNMT inhibition; at 40 µM; stronger effect = lower value
# How it was run: as §1
# On the % scale 0 is the no-effect control and ±100 the full control effect.
Compound,"activity change, negative = inhibition [1]","activity change, negative = inhibition [2] [%]","activity change, negative = inhibition [3]","activity change, negative = inhibition [4] [%]","activity change, negative = inhibition [5] [%]"
Oc1ccc2c3c1O[C@H]1c4[nH]c5ccccc5c4C[C@@]4(O)C(C2)N(CC2CC2)CCC314 (stereo partly specified),-8%,5.55,-3.19%,-5.29,6.14
CCC1c2cccn2-c2ccccc2CN1C(=O)Nc1ccc(Br)cc1F (stereo unspecified),-1.28%,0,-3.56%,-1.87,3.01
COc1ccc(C2c3cccn3-c3ccccc3CN2C(=O)Nc2cccc(Cl)c2C)cc1OC (stereo unspecified),11.4%,0.608,7.09%,0.96,7.67
C[C@H]1C(=O)O[C@H]2[C@H](O)[C@]34C5OC(=O)[C@]3(O[C@@H]3OC(=O)[C@H](O)C34[C@H](C(C)(C)C)[C@H]5O)C12O (stereo partly specified),3.22%,8.16,7.79%,-4.5,6.32
C=CC(C)(C)c1[nH]c2cccc3c2c1C[C@@H]1[C@@H]3[C@@H](OC(C)=O)[C@H](C)CN1C,3.6%,10.6,4.39%,-3.79,7.1
OCCCCC#Cc1cncc(OC[C@@H]2CCN2)c1,-1.6%,5.75,9.05%,-7.65,1.95
CC[C@@H](C(N)=O)N1CCCC1=O,3.85%,8.74,3.05%,-3.18,5.44
NCC(O)c1cc(O)c(O)cc1F (stereo unspecified),-27.4%,3.79,-0.757%,-8,31.6
Cc1cc(NC(=O)N2Cc3ccccc3-n3cccc3C2C)ccc1Br (stereo unspecified),9.13%,2.01,2.36%,4.61,7.03
Fc1cc(F)c2c(c1)C1C=CCC1C(c1cccnc1)N2 (stereo unspecified),4.55% and -21.3%,-4.11,6.58% and -9%,-16.1,-32.5
O=C(Nc1ccccc1C(F)(F)F)N1Cc2ccccc2-n2cccc2C1c1cccs1 (stereo unspecified),6.61%,0.045,1.54%,-0.04,6.03
COC(=O)CCNC(=O)N1Cc2ccccc2-n2cccc2C1c1cccs1 (stereo unspecified),1.18%,2.35,-9.41%,-5.06,-2.16
CCS(=O)(=O)Nc1cccc(C(=C2CCCCC2)c2cnc[nH]2)c1,-5.06%,9.59,0.092%,-10.7,10.7
Cc1cccc(NC(=O)N2Cc3ccccc3-n3cccc3C2c2ccc(N(C)C)cc2)c1C (stereo unspecified),9.78%,0,0.104%,8.63,7.26
Cc1[nH]c2ccc(O)cc2c1CCN,-4.32%,8.64,-14.3%,-7.22,-4.17
COc1ccccc1NC(=O)N1Cc2ccccc2-n2cccc2C1c1cccc(Cl)c1 (stereo unspecified),15.2%,1.18,7.39%,8.88,9.44
COc1ccc(C(=O)N2CCCC2=O)cc1,1.81%,11.7,6.13%,-3.63,8.89
COc1ccc(NC(=O)N2Cc3ccccc3-n3cccc3C2c2ccc(OC)cc2)cc1 (stereo unspecified),2.15%,4.95,-7.18%,-8.03,0.963
O=C1/C(=C/c2ccccc2)C[C@@]2(O)[C@H]3Cc4ccc(O)c5c4[C@@]2(CCN3CC2CC2)[C@H]1O5,-11.9%,13.9,-4.66%,-0.232,9.22
O=C(O)C1=NOC2CN(Cc3ccccc3)CC12 (stereo unspecified),-5.89%,-6.84,-3.83%,-13.5,2.04
COc1ccc(NC(=O)N2Cc3ccccc3-n3cccc3C2c2ccc(N(C)C)cc2)cc1 (stereo unspecified),3.85%,4.4,-2.29%,-3.57,-4.89
COc1ccc(C2c3cccn3-c3ccccc3CN2C(=O)Nc2ccc(Br)cc2)cc1 (stereo unspecified),8.5%,0,1.5%,2.95,6.5
CCOc1ccc(C2c3cccn3-c3ccccc3CN2C(=O)Nc2ccc(C)c(Cl)c2)cc1 (stereo unspecified),-5.96%,-2.87,-1%,-2.47,-3.55
CC[C@H](O)[C@@H](C)[C@H]1O[C@@H]1C[C@H](C)/C=C/C=C(\C)[C@H]1OC(=O)C[C@H](O)CC[C@@](C)(O)[C@@H](OC(C)=O)/C=C/[C@@H]1C,4.39%,-0.936,-0.297%,-17.7,-8.09
CC[C@H](C)[C@H](NC(=O)[C@H]1CCCCN1C)C(=O)N(COC(=O)CC(C)C)[C@H](C[C@@H](OC(C)=O)c1nc(C(=O)N[C@@H](Cc2ccc(O)cc2)C[C@H](C)C(=O)O)cs1)C(C)C,6.37%,9.21,3.1%,-12.6,-6.4
COC[C@@H]1OC(=O)/C(=C\N(C)CCCN(C)C)C2=C(O)C(=O)C3=C([C@@H](OC(C)=O)C[C@@]4(C)[C@@H]3CC[C@@H]4O)[C@@]21C,–,5.11,–,-10.1,-17.7
COC1CC(OC2CCC3(C)C(=CCC4C3CCC3(C)C(C(C)OC5OC(COC6OC(CO)C(O)C(O)C6O)C(O)C(O)C5O)CCC43O)C2)OC(C)C1OC1OC(C)C(O)C(OC)C1O (stereo unspecified),5.2%,6.47,1.53%,-6.84,6.76

Compound,"activity change, negative = inhibition [1]","activity change, negative = inhibition [2] [%]","activity change, negative = inhibition [3]","activity change, negative = inhibition [4] [%]","activity change, negative = inhibition [5] [%]"
CCOCCCNC(=O)N1Cc2ccccc2-n2cccc2C1c1ccc(OC)c(OC)c1 (stereo unspecified),10.7%,0,4.4%,-0.693,6.08
CSc1cccc(NC(=O)N2Cc3ccccc3-n3cccc3C2C)c1 (stereo unspecified),7.83%,0.88,-1.23%,-8.5,-0.384
CC(C)NC(=O)N1CC[C@@H](CC(=O)O)[C@@H](CCN2C[C@@H]3C[C@H](C2)c2cccc(=O)n2C3)C1,-1.38%,0.719,1.19%,1.94,-17.2
CCC1c2cccn2-c2ccccc2CN1C(=O)NCCCOC (stereo unspecified),-2.85%,3.57,-5.48%,-7.42,-3.45
Cc1cccc(NC(=O)N2Cc3ccccc3-n3cccc3C2C(C)C)c1 (stereo unspecified),4.62%,0,2.99%,5.55,7.26
CN(C)c1ccc(C2c3cccn3-c3ccccc3CN2C(=O)Nc2ccc(F)c(Cl)c2)cc1 (stereo unspecified),5.19%,0,1.37%,3.21,2.71
CN(Cc1cccc(-c2ccncc2)c1)C(=O)Oc1ccc(-c2ccc(C(N)=O)cc2)cc1,2%,-14.7,-4.57%,-26.4,-17.1
CC1c2cccn2-c2ccccc2CN1C(=O)Nc1cccc(Br)c1 (stereo unspecified),9.99%,0,3.49%,0.58,-2.19
CCc1ccc(NC(=O)N2Cc3ccccc3-n3cccc3C2c2ccccc2)cc1 (stereo unspecified),8.68%,1.33,0.583%,-4.18,2.67
COc1ccc(NC(=O)N2Cc3ccccc3-n3cccc3C2c2ccc(F)cc2)cc1 (stereo unspecified),2.52%,2.1,4.57%,1.15,-0.211
CC(=O)O[C@@H]1CC2C(C)(C)C(=O)C=C[C@]2(C)C2CC[C@]3(C)C(=CC(=O)O[C@H]3c3ccoc3)[C@@]21C (stereo partly specified),–,-9.56,–,-36.3,-16.7
CCC1c2cccn2-c2ccccc2CN1C(=O)Nc1cccc(Cl)c1 (stereo unspecified),1.46%,0.209,7.91%,6.48,8.1
Cc1ccccc1NC(=O)N1Cc2ccccc2-n2cccc2C1c1ccc(N(C)C)cc1 (stereo unspecified),3.73%,0,2.01%,4.01,4.62
C/C1=C/[C@@H](C)C/C=C/[C@H]2[C@@H]3O[C@]3(C)[C@@H](C)[C@H]3[C@H](Cc4c[nH]c5ccccc45)NC(=O)[C@]32C(=O)/C=C\C(=O)[C@@H]1O,-6%,-1.41,1.25%,-11.4,1.64
COC1C(O)C(OC2CCC3(C=O)C(CCC4C3CCC3(C)C(C5=CC(=O)OC5)CCC43O)C2)OC(C)C1OC1OC(CO)C(O)C(O)C1O (stereo unspecified),0%,0.85,6.49%,-7.63,2.04
CO[C@H]1CC=C2CCN3CCC4=C(CC(=O)OC4)[C@]23C1,-6.32%,6.76,-0.206%,-0.697,6.68
CC[C@@H]1C[C@H]2CC[C@H](O2)[C@H](C)C(=O)O[C@@H](C)C[C@@H]2CC[C@@H](O2)[C@@H](C)C(=O)O[C@H](CC)C[C@H]2CC[C@H](O2)[C@H](C)C(=O)O[C@@H](C)C[C@@H]2CC[C@@H](O2)[C@@H](C)C(=O)O1,-48.4%,-38.5,-8%,-18.9,-38.5
C[C@]12CC[C@H](O)CC1=CC[C@@H]1C2CC[C@]2(C)[C@@H](C3=CC(=O)OC3)CC[C@]12O (stereo partly specified),-1.4%,-1.55,10.1%,-16.2,-10.6
CCCCn1cc(C(=O)c2cccc3ccccc23)c2ccccc21,2.6%,-12.4,8.74%,-21.2,-4.04
CCCS(=O)(=O)N1C[C@@H]2C[C@H](C1)c1c(-c3ccccc3)ccc(=O)n1C2,-3.52%,-3.11,-1.92%,-3.23,-1
COC(=O)CCNC(=O)N1Cc2ccccc2-n2cccc2C1c1ccc(OC)cc1 (stereo unspecified),1.45%,2.46,-6.11%,-10,-2.06
C[N+]1(C)CCOC(O)(c2ccc(-c3ccc(C4(O)C[N+](C)(C)CCO4)cc3)cc2)C1 (stereo unspecified),2.19%,14.5,7.25%,-2.84,4.84
Nc1ccncc1,-0.028%,7.64,-20.2%,-29.1,3
CCOc1ccc(C2c3cccn3-c3ccccc3CN2C(=O)Nc2ccc(F)c(Cl)c2)cc1 (stereo unspecified),-7.74%,4.83,-3.16%,4.59,1.85
CCN1C(=O)CCNCC12CCOCC2,-1.05%,1.56,1.18%,-0.894,-1.33
CCOCCCNC(=O)N1Cc2ccccc2-n2cccc2C1c1ccc(SC)cc1 (stereo unspecified),-1.93%,0,3.78%,1.44,5.29
CCOC(=O)Nc1ccc(NCc2c(C)cc(C)cc2C)cc1N,-1.99%,-15.9,4.25%,-33.8,-8.65
